# PubChem BioAssay AID1461 (National Center for Advancing Translational Sciences (NCATS), 2008)
# In all, about 220,000 compounds went through this assay and about 2,300 (1%) were called active. Inconclusive results, whose numbers are uncertain, are shown with a selection of clear calls. Calls follow the shape of the dose curve; as a rule, active = well fitted inhibition curve with a large enough effect; inconclusive = small, poorly fitted or top-dose-only effect, or effect the other way; inactive = no such curve, though single readings can be large or run the other way. Potencies of inconclusive entries are left out as doubtful fits.
# Molecular target: Neuropeptide S receptor (Homo sapiens) (UniProt Q6W5P4)
# Sequence of UniProt Q6W5P4 (Q6W5P4 whole entry, looked up): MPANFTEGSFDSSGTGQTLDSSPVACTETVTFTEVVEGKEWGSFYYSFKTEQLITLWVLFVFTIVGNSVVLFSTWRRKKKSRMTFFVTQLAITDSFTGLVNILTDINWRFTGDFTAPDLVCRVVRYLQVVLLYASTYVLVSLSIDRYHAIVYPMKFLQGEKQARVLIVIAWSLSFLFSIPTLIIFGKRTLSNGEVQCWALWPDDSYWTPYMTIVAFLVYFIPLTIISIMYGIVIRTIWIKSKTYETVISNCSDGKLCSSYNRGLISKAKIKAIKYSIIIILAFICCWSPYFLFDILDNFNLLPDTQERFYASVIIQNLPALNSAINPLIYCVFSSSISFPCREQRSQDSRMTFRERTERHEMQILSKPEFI
# Assay: qHTS Assay for Antagonists of the Neuropeptide S Receptor: cAMP Signal Transduction; also: nearly all actives have a fitted effect of over 50% in size
# Details: CHO-NPSR cells, cAMP TR-FRET, antagonist mode; activity change, negative = inhibition: at 38.3 µM (top of the series) unless noted
# % is scaled to controls: 0 for no effect and ±100 for the full control effect; potency is read from the fitted curve at half-maximal effect; tags tell the direction and shape of the fitted curve.
SMILES,Potency,"activity change, negative = inhibition"
O=C(CSc1nnc(CN2CCOCC2)n1-c1ccc(Cl)cc1)Nc1cc(Cl)ccc1O,"inconclusive [inhibitor, partial curve]",–
Nc1nc(NC(=O)/C=C/c2ccc(F)cc2)nn1-c1ccccc1,–,inactive: 2.5%
CCCC1(C)Nc2ccccc2-c2nc3ccccc3n21 (stereo not drawn),"inconclusive [activator, partial curve]",–
C=CCN(CC=C)C(=O)Nc1cc(OC)ccc1OC,"inconclusive [activator, single point]",–
CN1C(=O)CC(N2CCC(C(N)=O)CC2)C1=O (stereo not drawn),–,inactive: -16.1% [at 46.1 µM]
COc1cccc(C2c3c(-c4cc(Cl)c(C)cc4O)n[nH]c3C(=O)N2Cc2cccnc2)c1 (stereo not drawn),"inconclusive [inhibitor, single point]",–
CCOC(=O)c1ccc2c(c1)nc(SC/C(O)=C(\C#N)c1nc3ccccc3[nH]1)n2CC,"inconclusive [activator, single point]",–
COc1ccccc1NCc1ccc([N+](=O)[O-])s1,–,inactive: 11.1%
Cc1ccc(S(=O)(=O)NNC(=O)c2sccc2-n2cccc2)cc1,–,inactive: -7.52% [at 46.1 µM]
Cn1nnc2cc(NC(=O)N3CC4(C)CC3CC(C)(C)C4)ccc21 (stereo not drawn),"inconclusive [inhibitor, partial curve]",–
CCCn1c(CN(Cc2ccccc2)Cc2ccccc2)nc2c1c(=O)n(C)c(=O)n2C,"inconclusive [inhibitor, single point]",–
Cc1nc2c(c(=O)n1Cc1ccco1)c1nc3ccccc3nc1n2Cc1ccccc1,"inconclusive [inhibitor, single point]",–
CCOC(=O)c1cc2c(C)n(-c3ccc(C)cc3)c(C)c2ccc1=O,"inconclusive [activator, partial curve]",–
COc1ccc(C(C(=O)NC2CCCCC2)N(C(=O)c2sc(C)nc2C)c2ccccc2C)cc1 (stereo not drawn),"inconclusive [inhibitor, partial curve]",–
CC1CCC2(CC1)C(Nc1cccc(Cl)c1)=NC(=S)N2CC#N (stereo not drawn),"inconclusive [inhibitor, single point]",–
N#CC1(Cc2ccccc2Cl)c2ccccc2C=CN1C(=O)c1ccccc1 (stereo not drawn),"inconclusive [inhibitor, single point]",–
Cc1sc(-n2c(C)cc(/C=N/n3cnnc3)c2C)c(C#N)c1C,"inconclusive [activator, partial curve]",–
Cc1ccc(C(CCNC(C)c2cccs2)c2ccco2)cc1 (stereo not drawn),–,inactive: 32.8%
CCCc1ccc(OCc2nc(-c3ccc(NC(=O)c4ccco4)cc3)no2)cc1,"inconclusive [inhibitor, full curve, poor fit]",–
Cc1ccccc1-c1n[nH]c(=S)o1,"inconclusive [activator, partial curve]",–
Cn1nnnc1-c1cc(Br)ccc1NC(=O)c1ccccc1,"inconclusive [inhibitor, single point]",–
COc1ccc2[nH]c3c(=O)n4c(nc3c2c1)SCCC4,–,inactive: 12.6%
CC(=O)c1cccc(NC(=O)c2nc(-c3ccccc3)oc2C)c1,–,inactive: -4.66%

SMILES,Potency,"activity change, negative = inhibition"
C=CCn1c(SCC(=O)Nc2cc(C)cc(C)c2)nnc1-c1cnccn1,"inconclusive [activator, single point]",–
CCOC(=O)c1sc2nc(NC(=O)C(C)(C)C)sc2c1C,"inconclusive [inhibitor, single point]",–
CCC(Oc1nc2ccccc2nc1-c1ccccc1NC(C)=O)C(=O)c1ccccc1 (stereo not drawn),"inconclusive [inhibitor, partial curve]",–
CCCCOC(=O)c1ccc(NC(=O)CSC2=Nc3ccccc3C3CC=NN23)cc1 (stereo not drawn),"inconclusive [inhibitor, single point]",–
CNc1nc(-c2ccccc2)[n+](-c2ccc(C)cc2)s1,"inconclusive [inhibitor, single point]",–
c1csc(-c2nc3nc4ccccc4nc3n2Cc2ccc3c(c2)OCO3)c1,"inconclusive [inhibitor, partial curve]",–
Cc1ccc(NN2C(=O)C=C(c3ccccc3)C2=O)cc1,"inconclusive [inhibitor, single point]",–
COc1ccc(NC(=O)COC(=O)c2ccc([N+](=O)[O-])o2)cc1Cl,–,inactive: 5.5%
CCn1c(CN2CCN(c3cccc(C)c3C)CC2)n[nH]c1=S,–,inactive: -16.1%
COc1ccc2[nH]c(=O)c(CN(C3CCCCC3)C(c3nnnn3Cc3ccco3)C(C)C)cc2c1 (stereo not drawn),"inconclusive [inhibitor, single point]",–
Cc1nn(-c2ccccc2)c2c1C1(C(=O)N(C(C)C)c3ccccc31)C(C#N)=C(N)O2 (stereo not drawn),"inconclusive [inhibitor, single point]",–
CCOC(=O)c1nn(-c2ccccc2F)c(C)c1C(C)=O,"inconclusive [inhibitor, single point]",–
Cc1ccc(NC(=O)CN2CCC(Cc3ccccc3)CC2)cc1S(=O)(=O)N(C)C,"inconclusive [inhibitor, single point]",–
c1ccc(-c2nc3ccccn3c2NC2CCCC2)nc1,"inconclusive [inhibitor, single point]",–
CC1(C)SC(=S)N(/N=C/c2ccccc2)C1N(O)C(=O)Nc1ccc([N+](=O)[O-])cc1 (stereo not drawn),"inconclusive [inhibitor, full curve]",–
CCOC(=O)c1sc2nc(CSc3ccccc3)nc(NCCN(C)C)c2c1C,"inconclusive [inhibitor, single point]",–
Cc1ccc2c(c1C)NC(=O)CC(c1ccccc1O)=N2,"inconclusive [inhibitor, single point]",–
Cc1ccc(CS/C(Nc2ccccc2C)=C(\C#N)C(=O)NCc2ccco2)c(C)c1,"inconclusive [inhibitor, partial curve, poor fit]",–
CC(=O)NC(=S)Nc1ccc(-c2nc3ccc(C)cc3s2)cc1,active: 10 µM,–
O=C(NC(=S)Nc1ccc(Oc2ccc(Cl)cc2)cc1)c1ccccc1,"inconclusive [inhibitor, single point]",–
CCC(/C=C1\Sc2ccc(OC)cc2N1CC)=C\c1sc2ccc(OC)cc2[n+]1CCCS(=O)(=O)[O-],–,inactive: -34.3%
Cc1cc(C(=O)COC(=O)c2ccc[nH]c2=O)c(C)n1C,–,inactive: 6.74%
O=C(Cc1sc(Nc2ccccc2)nc1-c1ccccc1)NCc1ccccc1,"inconclusive [inhibitor, single point]",–

SMILES,Potency,"activity change, negative = inhibition"
COc1ccc(O)c(C(=O)c2cc(C#N)c(=O)n(CC3CCCO3)c2)c1 (stereo not drawn),–,inactive: -8.77% [at 46.1 µM]
O=C(Nc1ccc2nc(SCc3ccc(Cl)cc3)sc2c1)c1ccccc1C(=O)N1CCOCC1,"inconclusive [inhibitor, single point]",–
COC(=O)c1c(-c2ccc(C)cc2)csc1NC(=O)Cc1ccc(OC)c(OC)c1,"inconclusive [inhibitor, single point]",–
C=CCN(CC=C)C(=S)NC(=O)Cc1cccc2ccccc12,"inconclusive [activator, single point]",–
c1ccc2[nH]c(-c3nc4ccccc4[nH]3)nc2c1,"inconclusive [inhibitor, single point]",–
CC1CC(C)CN(c2ncnc3c2cnn3Cc2ccc(Cl)cc2)C1 (stereo not drawn),"inconclusive [inhibitor, single point]",–
Cc1ccc(CNC(=O)C(C)OC(=O)c2ccco2)cc1 (stereo not drawn),"inconclusive [inhibitor, single point]",–
COCCc1ccc(OCC(O)CNC(C)C)cc1 (stereo not drawn),"inconclusive [activator, full curve, poor fit]",–
COc1cc2c(cc1OC)CN(C(=S)Nc1cccc(Cl)c1C)CC2,"inconclusive [inhibitor, single point]",–
O=[N+]([O-])/C=C/c1cn(Cc2ccccc2)c2ccccc12,active: 10 µM,–
O=c1c2ccccc2nc(SCc2cn3ccsc3n2)n1-c1ccccc1F,"inconclusive [inhibitor, partial curve]",–
O=C(CCC(=O)c1ccc(Br)cc1)Nc1cccc(C(F)(F)F)c1,–,inactive: -10.3% [at 46.1 µM]
c1ccc(N2CCN(c3nnnn3-c3ccccc3)CC2)cc1,"inconclusive [inhibitor, partial curve]",–
Cc1ccc(NS(=O)(=O)c2cc(C(=O)NCCSC3CCCCC3)ccc2C)cc1,"inconclusive [inhibitor, single point]",–
CCc1cccc(CC)c1N(COC)C(=O)Cn1c(CO)nc2ccccc21,"inconclusive [inhibitor, partial curve]",–
c1ccc(CCn2nnnc2C(c2cccnc2)N2CCN(c3nc4ccccc4s3)CC2)cc1 (stereo not drawn),"inconclusive [inhibitor, partial curve]",–
CCOC(=O)c1c(C)n(-c2ccc(C)cc2)c2ccc(OCC(O)CNCCCO)cc12 (stereo not drawn),–,inactive: -28.1%
Cc1ccccc1S(=O)(=O)Cc1ccc(C(=O)N2CCN(c3cccc(C)c3C)CC2)o1,"inconclusive [inhibitor, single point]",–
CC(=O)Nc1ccc(NC(=O)CC2Nc3cccc4cccc(c34)NC2=O)cc1 (stereo not drawn),–,inactive: -19.1% [at 46.1 µM]
Cc1cc2c(C)cc(=O)[nH]c2cc1NC(=O)CCl,–,inactive: 40.7%
Cc1ccc(Cl)cc1NC1=C/C(=N\S(=O)(=O)c2cccs2)c2ccccc2C1=O,"inconclusive [inhibitor, single point]",–
c1ccc(CCN=C2CCCc3c2[nH]c2ccccc32)cc1,"inconclusive [activator, single point]",–
